From patent US20230192841A1 (NANJING LEGEND BIOTECH, published 2023)
Where two headings read alike, the source gives them in different places.

Experiments:
human Claudin18.1 [1] = target: T1, human Claudin18.1 (human, UniProt P56856 1-261); assay: flow cytometry on PANC1.huCLDN18.1.Luc cells, Binding %
T1 construct: whole, on cells; expressed on PANC1 cells (PANC1.huCLDN18.1.Luc); also called huCLDN18.1; CLDN18.1

human Claudin18.2 [2] = target: T2, human Claudin18.2 (human, UniProt P56856-2 1-261); assay: flow cytometry, PANC1.huCLDN18.2.Luc cells (Example 7)
T2 construct: whole, on cells; expressed on Dubca, HEK293T, PANC1 cells by lentiviral transduction; endogenous on NUGC4 and KATOIII cells; also called huCLDN18.2; CLDN18.2
Method: (§1) Briefly, 5.0×10⁵ PANC1.huCLDN18.1.Luc or PANC1.huCLDN18.2.Luc cells in DPBS (pH7.2) were incubated with serially diluted anti-Claudin18.2 VHH-hIgG1Fc at 4° C. for 45 min, followed by wash-centrifugation-supernatant depletion-cell washing cycles for 3 times with DPBS. After wash, cell pellets were re-suspended in DPBS and incubated with a secondary antibody (1:200, Alexa Fluor™ 488 GOAT anti-human IgG (H+L) Antibody, Invitrogen, Cat. No. A1 1013) at 4° C. for 30 min in dark. The cells were then subject to wash-centrifugation-supernatant depletion-cell washing cycles for 3 times with DPBS. The cells were then run on Attune NXT flow cytometry to detect antibody-PANC1.huCLDN18.1.Luc or PANC1.huCLDN18.2.Luc binding level. Binding capabilities of each test antibody were described as Percentage of Binding, calculated with (cells with antibody binding/total cells)× 100 %.
(§2) Coding sequence of selected clones of humanized single domain antibody were codon optimized for human codon biased expression with GenScript OptimumGene™-Codon Optimization. The resulting coding DNA fragments were synthesized and fused to nucleotides nucleotide coding human IgG1 Fc portion (SEQ ID NO:76), for transient expression in chimeric formats. […] The humanized chimeric anti-Claudin18.2 antibodies were obtained using the mothed described in Example 2. The binding capacity of humanized chimeric antibodies to PANC1.huCLDN18.1.Luc or PANC1.huCLDN18.2.Luc cells were measured.

human Claudin18.1 [3] = target: T1, human Claudin18.1; assay: flow cytometry on PANC1.huCLDN18.1.Luc cells, Binding %; remark: listed apart in the source
Method: as §1, §2

human Claudin18.2 [4] = target: T2, human Claudin18.2; assay: flow cytometry, PANC1.huCLDN18.2.Luc cells; end tied to this member by its EC50 0.2862 nM in the 10th table
Method: as §1
as §2, with “The” for “The humanized chimeric anti-Claudin18.2 antibodies were obtained using the mothed described in Example 2. The”

human Claudin18.1 [5] = target: T1, human Claudin18.1; assay: flow cytometry on PANC1.huCLDN18.1.Luc cells, Binding %; remark: listed apart in the source
Method: as §1

human Claudin18.2 [6] = target: T2, human Claudin18.2; assay: flow cytometry, PANC1.huCLDN18.2.Luc cells, at 10 nM
Method: as §1

human Claudin18.2 [7] = target: T2, human Claudin18.2; assay: flow cytometry, PANC1.huCLDN18.2.Luc cells, percentage of binding
Method: as §1

human Claudin18.2 [8] = target: T2, human Claudin18.2; assay: flow cytometry, PANC1.huCLDN18.2.Luc cells; end tied to this member by its EC50 0.71 nM in the 7th table
Method: as §1

human Claudin18.2 [9] = target: T2, human Claudin18.2; assay: flow cytometry, PANC1.huCLDN18.2.Luc cells; end tied to this member by its EC50 25.45 nM in the 10th table
Method: as §1
as §2, with “The” for “The humanized chimeric anti-Claudin18.2 antibodies were obtained using the mothed described in Example 2. The”

human Claudin18.2 [10] = target: T2, human Claudin18.2; assay: flow cytometry, PANC1.huCLDN18.2.Luc cells; end tied to this member by its EC50 10.92 nM in the 7th table
Method: as §1

Row | EC50 (human Claudin18.2 [2]) | binding result (human Claudin18.1 [3]) | binding result (human Claudin18.1 [5]) | maximum binding% (human Claudin18.2 [6]) | EC50 (human Claudin18.2 [7]) | Binder | other results
1 | 0.341 nM |  |  |  |  | VHH182511H9-hIgG1Fc (Fc fusion, humanized VHH fused to human IgG1 Fc) QVQLLESGGGLVQPGGSLRLSCAASRSTYCMGWFRQAPGKGLERVANVYMRNGDTWLADSVKGRFTISRDNSKNAVYLQMTRLRAEDTAVYYCAAGRSSCLEASISYWGQGTLVTVSS[in this place human IgG1 Fc] | binding result (human Claudin18.1 [1]): no binding (tested: about 100 nM)
2 | 0.286 nM | no binding (tested: about 100 nM) |  |  |  | VHH182511H8-hIgG1Fc (Fc fusion, humanized VHH fused to human IgG1 Fc) EVQLLESGGGLVQPGGSLRLSCAASRSTYCMGWFRQAPGKGLERVANVYMRNGDTWLADSVKGRFTISRDNSKNAVYLQMNSLRAEDTAVYYCAAGRSSCLEASISYWGQGTLVTVSS[in this place human IgG1 Fc] | fold higher binding potency than 175DX-hIgG1Fc (human Claudin18.2 [4]): 1.93 to 172 fold
3 |  |  | no binding (tested: about 1000 nM) | ~100% | 0.71 nM | VHH182512-hIgG1Fc (Fc fusion, chimeric antibody: camelid VHH fused to human IgG1 Fc) EVQLVESGGGSVQAGGSLTLSCEASRSTANMAWFRQGPGKEREGVAAAHSDGSTKYADSVKGRFTISKDNGKNTLYLRMNGLKPEEGVMYYCAARGSPWWNSVVALESYAYSYWGQGTQVTVSS[in this place human IgG1 Fc] | fold higher binding potency than 175DX-hIgG1Fc (human Claudin18.2 [8]): 1.24 to 19 fold
4 | 25.4 nM | no binding (tested: about 3000 nM) |  |  |  | VHH182513H8-hIgG1Fc (Fc fusion, humanized VHH fused to human IgG1 Fc) QVQLVESGGGVVQPGRSLRLSCAASGYRSSVCMGWFRQAPGKGLERVAVIGRDGSTTYIDSVKGRFTISRDNSKNTLYLQMNSLRAEDTAVYYCAAGLGYWACEYNYWGQGTLVTVSS[in this place human IgG1 Fc] | fold higher binding potency than 175DX-hIgG1Fc (human Claudin18.2 [9]): 1.93 to 172 fold
5 |  |  | no binding (tested: about 1000 nM) | ~100% | 10.9 nM | VHH182514-hIgG1Fc (Fc fusion, chimeric antibody: camelid VHH fused to human IgG1 Fc) QVQLVESGGGSVQAGGSLSLSCAASGDTFHSKCMAWFRQGPGKEREVVATIQSGYYRPYYTDSVKGRFTISRDADKNRVYLQMDSLKPEDTAMYYCAADRFTYPYGVICGGISANYRYWGQGTRVTVSS[in this place human IgG1 Fc] | fold higher binding potency than 175DX-hIgG1Fc (human Claudin18.2 [10]): 1.24 to 19 fold
